Source: the supplement of paper PMC4967469
IC50 is the fitted dose that halves viability relative to control wells, and lower means more sensitive; fits outside the tested doses are given as limits. The AUC spans the tested range (256-fold, ending at the top dose) of the same fit; values near 1 show little effect. For some assays here: The top dose, if marked as inferred, was calculated from the reported fits. For some assays here: Drugs with an entry number were screened twice under separate entries, and the two screens often disagree.

How the values were obtained:
Test in all cases: Viability of human cancer cell lines after 72 h of drug (GDSC screen)
TW-37 = compound: CC(C)c1ccccc1Cc1cc(C(=O)Nc2ccc(S(=O)(=O)c3ccccc3C(C)(C)C)cc2)c(O)c(O)c1O [TW-37]; conditions: top dose 5 µM
Protocol: (§1)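 Human cancer cell lines in 384-well plates, medium with 10% serum, drug for 72 h over a 256-fold dose range (nine 2-fold or five 4-fold steps up to the top dose). Adherent lines were fixed and stained with the nucleic acid dye Syto60, suspension lines read with resazurin; signal relative to control wells, capped at 0 and 100%. One two-parameter sigmoid per drug and line, fitted in a mixed model over all curves with the slope shared within a line.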

Nilotinib = compound: Cc1cn(-c2cc(NC(=O)c3ccc(C)c(Nc4nccc(-c5cccnc5)n4)c3)cc(C(F)(F)F)c2)cn1 [Nilotinib]; conditions: top dose 2 µM
Protocol: as §1

T0901317 = compound: O=S(=O)(c1ccccc1)N(CC(F)(F)F)c1ccc(C(O)(C(F)(F)F)C(F)(F)F)cc1 [T0901317]; conditions: top dose 10.24 µM; top dose inferred
Protocol: as §1

AUY922 = compound: CCNC(=O)c1noc(-c2cc(C(C)C)c(O)cc2O)c1-c1ccc(CN2CCOCC2)cc1 [AUY922]; conditions: top dose 0.256 µM; top dose inferred
Protocol: as §1

Bicalutamide = compound: CC(O)(CS(=O)(=O)c1ccc(F)cc1)C(=O)Nc1ccc(C#N)c(C(F)(F)F)c1 [Bicalutamide]; conditions: top dose inferred
Protocol: as §1

Gemcitabine = compound: Nc1ccn([C@@H]2O[C@H](CO)[C@@H](O)C2(F)F)c(=O)n1 [Gemcitabine]; conditions: top dose 1.024 µM
Protocol: as §1

LFM-A13 = compound: C/C(O)=C(\C#N)C(=O)Nc1cc(Br)ccc1Br [LFM-A13]; conditions: top dose 16 µM; top dose inferred
Protocol: as §1

KIN001-270 = compound: Cc1ccc(Nc2cc(-c3cccc(N4C(=O)c5ccccc5C4=O)c3)ncn2)cc1NS(C)(=O)=O [KIN001-270]; conditions: top dose 20 µM; top dose inferred
Protocol: as §1

MP470 = compound: S=C(NCc1ccc2c(c1)OCO2)N1CCN(c2ncnc3c2oc2ccccc23)CC1 [MP470]; conditions: top dose 20 µM; top dose inferred
Protocol: as §1

[1] = top dose 1.024 µM, screen: GDSC drug entry 150
[2] = top dose 10 µM, screen: GDSC drug entry 1502

Row | Cell Line | AUC (TW-37) | IC50 (TW-37) | AUC (Nilotinib) | IC50 (Nilotinib) | AUC (T0901317) | IC50 (T0901317) | AUC (AUY922) | IC50 (AUY922) | AUC (Bicalutamide; [1]) | IC50 (Bicalutamide; [1]) | AUC (Bicalutamide; [2]) | IC50 (Bicalutamide; [2]) | AUC (Gemcitabine) | IC50 (Gemcitabine) | AUC (LFM-A13) | IC50 (LFM-A13) | AUC (KIN001-270) | IC50 (KIN001-270) | AUC (MP470) | IC50 (MP470)
1 | D-542MG (glioma, adherent) | 0.58 | 542 nM | 0.984 | > 2000 nM | 0.976 | > 10200 nM | 0.806 | 167 nM | 0.982 | > 1020 nM | 0.936 | > 10000 nM | 0.973 | > 1020 nM | 0.967 | > 16000 nM | 0.916 | > 20000 nM | 0.895 | > 20000 nM
2 | DAN-G (pancreas, adherent) | 0.619 | 636 nM | 0.991 | > 2000 nM | 0.964 | > 10200 nM | 0.733 | 66.3 nM | 0.99 | > 1020 nM | – | – | 0.99 | > 1020 nM | 0.985 | > 16000 nM | 0.983 | > 20000 nM | 0.937 | > 20000 nM
3 | DBTRG-05MG (glioma, adherent) | 0.683 | 1110 nM | 0.954 | > 2000 nM | 0.976 | > 10200 nM | 0.553 | 22.9 nM | 0.983 | > 1020 nM | 0.982 | > 10000 nM | 0.474 | 53.7 nM | 0.97 | > 16000 nM | 0.953 | > 20000 nM | 0.949 | > 20000 nM
4 | DK-MG (glioma, adherent) | 0.767 | 2810 nM | 0.959 | > 2000 nM | 0.978 | > 10200 nM | 0.705 | 81.6 nM | 0.952 | > 1020 nM | 0.956 | > 10000 nM | 0.969 | > 1020 nM | 0.946 | > 16000 nM | 0.975 | > 20000 nM | 0.966 | > 20000 nM
5 | DMS-53 (small cell lung carcinoma, adherent) | 0.72 | 1390 nM | 0.988 | > 2000 nM | 0.981 | > 10200 nM | 0.802 | 137 nM | 0.988 | > 1020 nM | 0.981 | > 10000 nM | 0.835 | 740 nM | 0.985 | > 16000 nM | 0.971 | > 20000 nM | 0.307 | 342 nM
6 | DMS-273 (small cell lung carcinoma, adherent) | 0.298 | 81.2 nM | 0.983 | > 2000 nM | 0.937 | > 10200 nM | 0.633 | 38.1 nM | 0.982 | > 1020 nM | – | – | 0.296 | 16.4 nM | 0.968 | > 16000 nM | 0.91 | > 20000 nM | 0.744 | 6580 nM
7 | Detroit562 (head and neck, adherent) | 0.736 | 1420 nM | 0.972 | > 2000 nM | 0.983 | > 10200 nM | 0.619 | 33.5 nM | 0.988 | > 1020 nM | 0.986 | > 10000 nM | 0.281 | 15.8 nM | 0.981 | > 16000 nM | 0.972 | > 20000 nM | 0.93 | > 20000 nM
8 | EBC-1 (lung squamous cell carcinoma, adherent) | 0.372 | 132 nM | 0.978 | > 2000 nM | 0.969 | > 10200 nM | 0.534 | 20.1 nM | 0.981 | > 1020 nM | 0.896 | > 10000 nM | 0.12 | < 4 nM | 0.974 | > 16000 nM | 0.954 | > 20000 nM | 0.92 | > 20000 nM
9 | ECC10 (stomach, suspension) | 0.542 | 409 nM | 0.92 | > 2000 nM | 0.976 | > 10200 nM | 0.749 | 86.2 nM | 0.985 | > 1020 nM | 0.973 | > 10000 nM | 0.805 | 545 nM | 0.983 | > 16000 nM | 0.927 | > 20000 nM | 0.865 | 19100 nM
10 | EFO-21 (ovary, adherent) | 0.772 | 2840 nM | 0.98 | > 2000 nM | 0.979 | > 10200 nM | 0.681 | 64.6 nM | 0.979 | > 1020 nM | 0.958 | > 10000 nM | 0.47 | 51.1 nM | 0.968 | > 16000 nM | 0.97 | > 20000 nM | 0.943 | > 20000 nM
11 | EFO-27 (ovary, adherent) | 0.381 | 135 nM | 0.977 | > 2000 nM | 0.981 | > 10200 nM | 0.466 | 12.6 nM | 0.981 | > 1020 nM | 0.926 | > 10000 nM | 0.337 | 20 nM | 0.971 | > 16000 nM | 0.978 | > 20000 nM | 0.936 | > 20000 nM
12 | EGI-1 (biliary tract, adherent) | 0.704 | 1410 nM | 0.968 | > 2000 nM | 0.973 | > 10200 nM | 0.754 | 110 nM | 0.982 | > 1020 nM | 0.957 | > 10000 nM | 0.62 | 152 nM | 0.979 | > 16000 nM | 0.965 | > 20000 nM | 0.933 | > 20000 nM
13 | ES6 (Ewing sarcoma, adherent) | 0.526 | – | 0.982 | > 2000 nM | 0.979 | > 10200 nM | 0.37 | 6.42 nM | 0.982 | > 1020 nM | 0.976 | > 10000 nM | 0.178 | 5.14 nM | 0.957 | > 16000 nM | 0.945 | > 20000 nM | 0.942 | > 20000 nM
14 | ESS-1 (endometrium, adherent) | 0.383 | 155 nM | 0.99 | > 2000 nM | 0.973 | > 10200 nM | 0.591 | 27.6 nM | 0.988 | > 1020 nM | 0.989 | > 10000 nM | 0.105 | < 4 nM | 0.963 | > 16000 nM | 0.989 | > 20000 nM | 0.948 | > 20000 nM
